# According to PubChem BioAssay AID1345083 (National Center for Advancing Translational Sciences (NCATS), 2018):
# About 6,200 (6.6%) of roughly 94,000 compounds were called active. Inconclusive results, whose numbers are uncertain, are shown with a selection of clear calls. The call rests on the fitted dose curve; in most records, active means well fitted inhibition curve with a large enough effect; inconclusive means small, poorly fitted or top-dose-only effect; inactive means flat fitted curve, though single readings scatter. Potencies beside an inconclusive call are fits to weak or partial responses and may not hold up.
# Assay: Cytotoxic Profiling in HEK 293 Cell Line of Diverse Libraries Using Quantitative High-Throughput Screening; further: nearly all actives have a fitted effect of over 60% in size
# Conditions: HEK 293 viability, ATP luminescence (CellTiter-Glo), 48-72 h; series mostly up to 115 µM
# Procedure, shortened: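 Cytotoxicity was scored by loss of ATP-coupled luminescence (CellTiter-Glo) in HEK 293 cells. Compound treatment ran 48 or 72 hr at 37 degree Celsius, 5% CO2, 95% humidity.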
# Potency means the concentration at half of the fitted maximal effect; tags describe the fitted curve by direction and shape.
row,Compound,Potency
1,CCCCc1nc2cc(C(=O)N3CC(Oc4ccccc4OC)C3)ccc2o1,"inconclusive: 89.1 µM [inhibitor, single point]"
2,COc1ccc(S(=O)(=O)N2CCC3(CCCNC3)C2)c(OC)c1 (centres undefined),inactive
3,CCn1cc(CN2CCn3c(nnc3[C@@H]3C[C@@H](O)CN3Cc3cccnc3)C2)c(C)n1,"inconclusive: 63.1 µM [inhibitor, partial curve, poor fit]"
4,COc1ccccc1C(=O)NCc1nnc2cc(-c3nc(C(C)C)no3)ccn12,"inconclusive: 89.1 µM [inhibitor, single point]"
5,CN1C(=O)COC[C@@H]1[C@H](O)c1ccc(NC(=O)c2ccc(C#N)cc2)cc1,inactive
6,O=C(O)C[C@@H]1CCN(C(=O)Cc2ccccc2)C[C@@H]1CCN1CCN(c2ccccc2)CC1,inactive
7,O=C(c1c(F)cccc1F)N1CCC(n2cc(-c3nc(-c4ccccc4)no3)nn2)CC1,"inconclusive: 44.7 µM [inhibitor, partial curve, poor fit]"
8,CC(C)CCC(=O)N1C[C@@H](CO)[C@H](c2nc(-c3ccncc3)no2)C1,"inconclusive: 89.1 µM [inhibitor, single point]"
9,Cc1noc(C)c1[S+](=O)([O-])N1CCC2(CC1)C(=O)NN=C2c1ccccn1,"inconclusive: 39.8 µM [inhibitor, partial curve]"
10,COc1ccc(CCNC(=O)c2c(C)noc2-c2ccccc2OC)cc1,"inconclusive: 79.4 µM [inhibitor, partial curve, poor fit]"
11,O=c1ncn(CC2CC2)c2ccc(-c3ccoc3)nc12,inactive
12,CCc1ccccc1NC(=O)C1c2ccccc2C(=O)N(CCOC)C12CCCCC2 (centres undefined),inactive
13,CCOc1cc(=O)n2c(c1C(=O)Nc1ccc(C)cc1Cl)CCCC2,"inconclusive: 39.8 µM [inhibitor, partial curve, poor fit]"
14,Cc1ccc(NC(=O)C2CN(S(=O)(=O)C3CC3)CC23CCCCC3)c(F)c1 (centres undefined),"inconclusive: 44.7 µM [inhibitor, partial curve, poor fit]"
15,CCc1cc(=O)n(CC(=O)Nc2cccc(C(C)=O)c2)c(-c2cccc(F)c2)n1,"inconclusive: 50.1 µM [inhibitor, partial curve, poor fit]"
16,O=C(c1cc(Cl)ccc1F)N1CCC(Cc2nc(-c3cnccn3)no2)CC1,"inconclusive: 79.4 µM [inhibitor, single point]"
17,Cc1noc(C)c1-c1cc2cc(CN(C)C)oc2c(N2CCOCC2)n1,"inconclusive: 89.1 µM [inhibitor, partial curve]"
18,C=CCn1cc2c3c(cccc31)[C@H](CC(C)C)N[C@H](C(=O)N1CCN(CCOC)CC1)C2,"inconclusive: 79.4 µM [inhibitor, partial curve, poor fit]"
19,COc1ccccc1-c1ccc(C(=O)N2CCC(N[S+](=O)([O-])c3ccccc3)CC2)cc1,"inconclusive: 50.1 µM [inhibitor, partial curve, poor fit]"
20,O=c1[nH]nc2n1CCN(Cc1ccccc1F)CC2,"inconclusive: 89.1 µM [inhibitor, single point]"

row,Compound,Potency
1,COc1ccc(-n2c(=O)c3c(n2Cc2ccccc2)CN(CCCc2ccccc2)CC3)cc1,"inconclusive: 50.1 µM [inhibitor, partial curve, poor fit]"
2,O=C(C1CCC1)N1CCC2(CC1)NCCc1c2[nH]c2ccccc12,"inconclusive: 35.5 µM [inhibitor, partial curve, poor fit]"
3,CC(=O)N1CCC(C2CCN(S(=O)(=O)c3ccc(C)c(Cl)c3)C2)CC1 (centres undefined),"inconclusive: 39.8 µM [inhibitor, full curve, poor fit]"
4,Cc1cccc(OCC(=O)N2CC(C(=O)NC3CCCCC3)C3(CCOCC3)C2)c1 (centres undefined),"inconclusive: 89.1 µM [inhibitor, single point]"
5,O=C(NC1CCCN(c2cc(-c3ccccc3)[nH]n2)C1)c1ccc2cc[nH]c2c1 (centres undefined),"inconclusive: 89.1 µM [inhibitor, partial curve, poor fit]"
6,CCCCn1c(=O)c(C(=O)NC2CCCc3ccccc32)nc2cccnc21 (centres undefined),active: 39.8 µM
7,Cc1nn(-c2ccccc2)c2c1C(C)N(C1CCCN(C(=O)c3ccc(C(F)(F)F)cc3)C1)C2=O (centres undefined),"inconclusive: 39.8 µM [inhibitor, full curve]"
8,COc1cccc(-c2cc(C(=O)N3CCC(C#N)CC3)c3cnn(C)c3n2)c1,inactive
9,COc1cc(NC(=O)O[C@@H]2CC[C@]3(C)C(CC[C@@H](O)[C@H]3CC(=O)N3CCCCC3)[C@]2(C)CO)cc(OC)c1OC (some centres undefined),"inconclusive: 39.8 µM [inhibitor, partial curve, poor fit]"
10,O=C(Nc1cccc(Cl)c1)C1CCCN(Cc2cccc(-c3ccc(F)cc3F)c2)C1 (centres undefined),"inconclusive: 50.1 µM [inhibitor, partial curve, poor fit]"
11,O=C(CNC(=O)c1ccc(-c2cnc3ccccc3c2)cc1)NC1CCCCC1,inactive
12,CCOC(=O)c1cccc(NC(=O)C2=CC(C)(C)COc3ccc(OC)cc32)c1,"inconclusive: 50.1 µM [inhibitor, partial curve, poor fit]"
13,Clc1ccc(C2Cn3nnc(-c4noc(C5CC5)n4)c3CO2)cc1 (centres undefined),"inconclusive: 79.4 µM [inhibitor, single point]"
14,COc1ccc(CN2Cc3cc(NC(=O)c4cccc(F)c4)ccc3OCC2=O)c(OC)c1,"inconclusive: 35.5 µM [inhibitor, partial curve, poor fit]"
15,Cn1ncc2c(C(=O)NC3CCCCC3)cc(-c3cccnc3)nc21,inactive
16,O=C(c1cccc(Cl)c1)N1CCC(C(=O)N2CCC(N3Cc4cccn4C3=O)CC2)CC1,"inconclusive: 44.7 µM [inhibitor, partial curve, poor fit]"
17,CN1CCC2(C1)CN(CC1CC1)c1ccc(C(=O)NC3COC3)cc12 (centres undefined),"inconclusive: 50.1 µM [inhibitor, full curve]"
18,Nc1cccn2nc(-c3cccnc3)nc12,inactive
19,C[S+](=O)([O-])c1ccc(-c2nnc3ccc(C(=O)NCCc4ccc(Cl)cc4)cn23)cc1,"inconclusive: 79.4 µM [inhibitor, single point]"
